Experimental data as given in US20050215634A1 (priority 2003, published 2005).
Like-named read-outs stand apart in the source and are kept apart here. Marks after values point to notes of the source that are not given here.

Tested on: Streptococcus pyogenes T18P
Format: cell-based
Conditions: S. pyogenes

## CCCCCCCCCCCC(=O)OCC(O)CO (stereo not shown) [GML, glycerol monolaurate]
GML 10 μg/ml, ratio 100:1
  Average colony forming units from two wells: <10^b colony forming units
GML 10 μg/ml, ratio 1000:1
  Average colony forming units from two wells: <10 colony forming units
GML 20 μg/ml, ratio 100:1
  Average colony forming units from two wells: <10 colony forming units
GML 20 μg/ml, ratio 1000:1
  Average colony forming units from two wells: <10 colony forming units
